Experimental data published in PubChem BioAssay AID624417 (National Center for Advancing Translational Sciences (NCATS), 2012).
Screen size: about 410,000 compounds; about 6,400 (1.6%) were called active. The inconclusive results got no clear call from the source; some entries with a clear call stand among them for comparison. Calls come from the whole dose curve; as a rule, active = well fitted inhibition curve with a large enough effect; inconclusive = small, poorly fitted or top-dose-only effect; inactive = no such curve, though single readings can be large or run the other way. Potencies of inconclusive entries are doubtful fits and often do not repeat.

target: Glucagon-like peptide 1 receptor (Homo sapiens) (UniProt P43220); assay: qHTS of GLP-1 Receptor Inverse Agonists (Inhibition Mode); settings: HEK293 GLP-1R CRE-luciferase, luminescence, 24 h, GLP-1R form is constitutively active; activity change, negative = inhibition: at 38.3 µM (top of the series) unless noted; note: nearly all actives have a fitted effect of over 55% in size
Procedure, shortened: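 Constitutively active GLP-1R drives a cAMP-responsive luciferase in stably transfected HEK293 cells; test compounds are added after overnight (12 h) attachment and left 24 hr, and signal loss in luminescence marks inhibition.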
% is set by controls: 0 for no effect and ±100 for the full control effect; potency is the fitted concentration of half-maximal effect; tags give direction and shape of the fitted curve.

Chain of UniProt P43220 (P43220 whole entry, looked up): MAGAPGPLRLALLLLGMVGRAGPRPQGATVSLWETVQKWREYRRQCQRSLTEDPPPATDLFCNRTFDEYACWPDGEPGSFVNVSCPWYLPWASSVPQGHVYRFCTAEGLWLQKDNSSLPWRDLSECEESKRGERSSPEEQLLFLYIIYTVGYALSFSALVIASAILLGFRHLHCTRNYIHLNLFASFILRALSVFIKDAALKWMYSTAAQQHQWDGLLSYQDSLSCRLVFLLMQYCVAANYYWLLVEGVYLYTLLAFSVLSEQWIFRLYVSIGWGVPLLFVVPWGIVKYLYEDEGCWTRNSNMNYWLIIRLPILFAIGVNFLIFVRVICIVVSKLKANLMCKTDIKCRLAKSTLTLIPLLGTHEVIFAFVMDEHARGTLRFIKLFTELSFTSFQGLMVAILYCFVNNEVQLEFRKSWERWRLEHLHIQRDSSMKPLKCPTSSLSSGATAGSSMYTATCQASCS

Potency, inconclusive:
O=C(CSc1nnc(-c2ccccc2Cl)o1)N1CCCc2ccccc21 28.2 µM [inhibitor, single point]
COc1ccc(CCN(C)Cc2c(O)ccc3cc(Br)ccc23)cc1OC 12.6 µM [inhibitor, partial curve, poor fit]
O=C(COc1ccc2c(c1)OCO2)Nc1nccs1 11.2 µM [inhibitor, partial curve, poor fit]
CC(=O)/C(=N\Nc1ccccc1)Oc1ccc(Br)cc1 10 µM [inhibitor, partial curve, poor fit]
CC(C)Oc1cccc(C(=O)C2CCCN(C(=O)c3cc(C(F)(F)F)[nH]n3)C2)c1 (configuration not stated) 10 µM [inhibitor, partial curve, poor fit]
Cc1cccc(CN2CCN(C(=O)c3ccccc3F)CC2)c1 28.2 µM [inhibitor, single point]
O=C(CC12CC3CC(CC(C3)C1)C2)Nc1ccccc1N1CCOCC1 28.2 µM [inhibitor, single point]
C[C@H](CO)N1C[C@H](C)[C@@H](CN(C)Cc2ccc(-c3ccccc3)cc2)Oc2c(NC(=O)Cc3ccccc3)cccc2C1=O 28.2 µM [inhibitor, single point]
Cn1c2ccccc2c(=O)c2ccc(-c3ccc4c(c3)OCO4)cc21 28.2 µM [inhibitor, single point]
Cc1ccc(S(=O)(=O)c2c(O)cc(C)c(NS(=O)(=O)c3ccc(Br)cc3)c2C)cc1 28.2 µM [inhibitor, single point]
C=CC[C@@H](CC(=O)N[C@H](CO)Cc1ccccc1)C(=O)N[C@H](COC(=O)[C@@H](CC=C)CC(=O)OC(C)(C)C)Cc1ccccc1 28.2 µM [inhibitor, single point]
CCN(CC)S(=O)(=O)c1ccc(C)c(NC(=S)N2CCN(C/C=C/c3ccccc3)CC2)c1 10 µM [inhibitor, partial curve, poor fit]
CCNc1ccc(S(=O)(=O)N2CCOCC2)cc1NCC(=O)Nc1cccc(Br)c1 28.2 µM [inhibitor, single point]
CCc1ccc(NC(=O)c2noc(C(C)C)c2[N+](=O)[O-])cc1 28.2 µM [inhibitor, single point]
O=C(/C=C/c1ccc2c(c1)OCO2)c1ccc(O)cc1O 28.2 µM [inhibitor, single point]
CCSc1nn(CC(=O)Nc2cccc(CC)c2)c(N)c1S(=O)(=O)c1ccccc1 8.91 µM [inhibitor, partial curve, poor fit]
COCCCNC(=O)C1CCN(Cc2cc3ccccc3n2Cc2ccccc2C)CC1 2.24 µM [inhibitor, partial curve, poor fit]
CCN1C(=NCCCOC(C)C)N[C@@H](CCc2ccccc2)[C@H](C(=O)NCCCOC(C)C)[C@H]1C 28.2 µM [inhibitor, single point]
Cn1c(=O)n(C)c2cc(/C=N/NC(=O)c3ccc(Cl)cc3)ccc21 11.2 µM [inhibitor, partial curve, poor fit]
CSc1ccc(CN(C)C(C)C(=O)NCC2CCCCC2)cc1 (configuration not stated) 11.2 µM [inhibitor, partial curve, poor fit]
CN1CCN(c2ccc(CNS(=O)(=O)c3cccc(F)c3)cc2)CC1 0.631 µM [inhibitor, full curve, poor fit]
CCN(CC)C(=O)Oc1nnc(SC(C)C)n1-c1ccc(Cl)cc1 20 µM [inhibitor, single point]
CC(C)(C)OC(=O)N1CCC(c2c(C(=O)NCc3ccccc3)cnn2-c2cccc(F)c2)CC1 11.2 µM [inhibitor, partial curve, poor fit]
Cc1ccc(NC(=S)N(CCN(C)C)C(C)c2ccco2)cc1C (configuration not stated) 20 µM [inhibitor, single point]
Cc1ccc(CNC(=O)COc2cc(O)c3c(c2)OC(C)(C)CC3=O)cc1 10 µM [inhibitor, partial curve, poor fit]
COc1ccccc1C(CNC(=O)c1cccc(NS(=O)(=O)c2ccc(C)c(F)c2)c1)N1CCCC1 (configuration not stated) 10 µM [inhibitor, single point]
COc1ccc(N2CCN(C(=O)c3cc(-c4cccs4)nc4ccccc34)CC2)cc1 11.2 µM [inhibitor, partial curve, poor fit]
Cc1ccc(N=Cc2c(C)[nH]n(-c3nc4ccccc4[nH]3)c2=O)cc1 22.4 µM [inhibitor, partial curve, poor fit]
COC(=O)[C@@]1(Cc2ccc(F)cc2)[C@H]2c3cc(C(=O)N(C)C)n(Cc4nc5ccccc5[nH]4)c3C[C@H]2CN1C(=O)c1ccccc1 10 µM [inhibitor, partial curve, poor fit]
COc1ccc(-c2noc(CN(C)S(=O)(=O)c3c(C)cc(C)cc3C)n2)cc1OC 12.6 µM [inhibitor, single point]
COc1ccc2oc(C(=O)NCCC(C)C)c(C)c2c1 22.4 µM [inhibitor, single point]
Cc1ccc(-c2nc(CCNC(=O)c3ccc(C)c(C)c3)cs2)cc1 11.2 µM [inhibitor, single point]
O=C(NC(=S)Nc1ccccn1)c1ccc([N+](=O)[O-])cc1 10 µM [inhibitor, single point]
CCN(CC)S(=O)(=O)c1ccc(Cl)c(NC(=S)NC(=O)C2CCCC2)c1 7.94 µM [inhibitor, partial curve, poor fit]
CSc1ccc(NC(=O)C2(C)CCN2C(=O)Cc2ccc(C(C)(C)C)cc2)cc1 (configuration not stated) 20 µM [inhibitor, single point]
O=C(c1ccccc1)c1ccc(N2CCCC2)cc1 28.2 µM [inhibitor, single point]
COc1cccc(NC(=O)CN(C)C(=O)CSc2nc3ccccc3s2)c1 8.91 µM [inhibitor, partial curve]
C[C@@H]1CC=C[C@H]2[C@H]1C(=O)N(Cc1ccccc1)[C@H]2c1ccc2ccccc2c1Br 10 µM [inhibitor, partial curve, poor fit]
CSc1ccccc1OCc1cc(C(=O)NC(C)Cc2cccc(C)n2)no1 (configuration not stated) 8.91 µM [inhibitor, partial curve, poor fit]
CCOc1ccc(CN(C)C(=O)CNC(=O)c2ccccc2)cc1 12.6 µM [inhibitor, single point]
O=C(COc1ccc(F)cc1Br)Nc1ccccc1N1CCOCC1 28.2 µM [inhibitor, single point]
COc1cc(Nc2ccc(C)cc2)c([N+](=O)[O-])nc1[N+](=O)[O-] 2.51 µM [inhibitor, full curve]
COc1ccc(Nc2nc(C(=O)N3CCc4ccccc4C3)cs2)cc1 31.6 µM [inhibitor, partial curve, poor fit]
O=C1OC(c2ccccc2)Cc2cc(C(=O)N3CCN(c4ccc(F)cc4)CC3)ccc21 (configuration not stated) 10 µM [inhibitor, single point]
Cc1cc2cc(CCNC(=O)c3ccc(S(=O)(=O)N4CCCC4)cc3)c(=O)[nH]c2cc1C 10 µM [inhibitor, partial curve]
CCOc1cccc(NC(=O)c2ccc(F)c(S(=O)(=O)N(CC)c3cccc(C)c3)c2)c1 20 µM [inhibitor, single point]

Potency, active:
COc1ccc(Br)cc1CNC(=O)CCCc1cn(C)c2ccccc12 22.4 µM
CCCn1c(NC(=O)c2ccccc2)nc2ccccc21 11.2 µM
CC(CCCN(C)C)C(Cc1ccccc1)c1ccccc1 (configuration not stated) 11.2 µM

Activity change, negative = inhibition, inconclusive:
CC12CC3CC(C)(C1)CC(NCc1ccncc1)(C3)C2 -30.5% [inhibitor] [at 7.66 µM]

Activity change, negative = inhibition, inactive:
C/C(=N\Nc1ccccc1)c1cc2ccccc2oc1=O -3.03%
CC(CCc1ccccc1)NC(=O)c1ccc(NC(=O)c2ccccc2)cc1 (configuration not stated) 2.6%
O=C(O)c1ccccc1-c1ccc(/C=C/c2cc(C(F)(F)F)[nH]c(=O)n2)o1 14.1%
O=C(O)c1ccc(S(=O)(=O)NN=Cc2c[nH]c3ccccc23)cc1 0.718%
Cc1cc(O)c(C(c2ccccc2)N2CCCCC2)c(=O)n1Cc1ccco1 (configuration not stated) -12.7%
CCCCn1cc(S(=O)(=O)c2ccc(C)cc2)c(=O)c2cc(F)c(N3CCCCC3)cc21 13.1%
CCOC(=O)[C@]12CCCC=C1N(CCc1ccc(OC)c(OC)c1)C(=O)[C@H](CC(=O)NCc1ccccc1)C2 -15.9%
Cc1c(C)c2cc(Cl)c(OCC(=O)Nc3ccccn3)cc2oc1=O 9.36%
CCOC(=O)C1(CCOC)CCN(Cc2ccc(C(=O)OC)cc2)CC1 -8.63%
O=C(Nc1ccccc1)NC1CC2CCC(C1)N2Cc1nnnn1Cc1ccc2c(c1)OCO2 (configuration not stated) 0.388%
CSc1cccc(NC(=O)c2cnn(-c3ccc(F)cc3)c2-n2cccc2)c1 -26.9%
O=C(Cn1nc(C(=O)O)c2ccccc2c1=O)Nc1cc(S(=O)(=O)N2CCOCC2)ccc1Cl 5.07%
